Results reported in PubChem BioAssay AID463173 (ICCB-Longwood Screening Facility, Harvard Medical School, 2010).
Hit rate of the full screen: of about 52,000 compounds, about 1,700 (3.3%) were called active. Cut-off read from the data, not from the text of the source: active = survival mostly below about 52% (no sharp cut-off); inactive = mostly above about 56%. This is one part of the list.

tested on: Wild type; assay: growth inhibition of S. aureus wild type versus tarO mutant, primary screen, teichoic acid synthesis inhibitors, RN4220, OD600 (AID 463173); conditions: S. aureus RN4220 wild type/DeltatarO growth, OD600, 18 h, stronger effect = lower value, screened at 18.75 µg/mL (by protocol)

Q: How did the survival turn out when `Cc1ccc(NCc2nnc(SCC(=O)N3c4ccccc4CCc4ccccc43)o2)c(C)c1` was run?
A: inactive: 119%

Q: Which survival does the source give for `CCCC(c1nnnn1CC1CCCO1)N(Cc1cccs1)Cc1cc2ccc(C)c(C)c2[nH]c1=O` (centres undefined) here?
A: inactive: 104%

Q: For `CN(C)c1ccc(CN(Cc2ccco2)C(=O)COc2ccc(F)cc2)cc1`, which survival is on record?
A: inactive: 95%

Q: With `Cc1cccc(C(=O)NCC(c2cccs2)S(=O)(=O)c2cccs2)c1` (centres undefined) as the compound, how does the survival read?
A: inactive: 68%

Q: With `COc1ccccc1CCNC(=O)C(=O)NCC(c1ccco1)S(=O)(=O)c1cccs1` (centres undefined) as the compound, how does the survival read?
A: inactive: 71%

Q: How did the survival turn out when `COc1ccc(C(=O)Nc2ccc(NC(=O)c3cccs3)cc2)cc1OC` was run?
A: inactive: 87%

Q: For `CCOC(=O)c1ccc(CN(Cc2ccc(C)cc2)S(=O)(=O)c2ccc(F)c(C(=O)Nc3ccc(C)c(F)c3)c2)cc1`, which survival is on record?
A: inactive: 65%

Q: With `Cc1ccc(S(=O)(=O)NC2(C(F)(F)F)NC(=O)N(c3ccc(F)cc3)C2=O)cc1` (centres undefined) as the compound, how does the survival read?
A: inactive: 67%

Q: With `CCOCCc1nn2c(=O)cc(COC(=O)c3ccccc3NC(=O)c3ccccc3F)nc2s1` as the compound, how does the survival read?
A: inactive: 73%

Q: `CC1CCN(S(=O)(=O)c2ccc3c(c2)CCN3C(=O)Nc2cccc(Br)c2)CC1` was tested. Which survival did it give?
A: inactive: 84%

Q: `Cc1ccc(-c2nc3n(n2)C(c2ccccc2Cl)C=C(c2ccc(Cl)cc2)N3)cc1` (centres undefined) was tested. Which survival did it give?
A: inactive: 78%

Q: `O=C(NCC(c1ccc2c(c1)OCO2)N1CCN(c2ccccc2)CC1)C(=O)Nc1ccc(F)cc1` (centres undefined) was tested. Which survival did it give?
A: inactive: 71%

Q: How did the survival turn out when `CC(=O)Oc1ccc(Nc2nc3nonc3nc2Nc2ccccc2)cc1` was run?
A: inactive: 104%

Q: With `CCOc1ccc(C(=O)c2cn(CC(=O)Nc3ccc(OC)cc3)c3cc4c(cc3c2=O)OCO4)cc1` as the compound, how does the survival read?
A: inactive: 82%

Q: For `CC(C)CCn1c(=O)c2cccnc2n(CC(=O)Nc2ccccc2)c1=O`, which survival is on record?
A: inactive: 77%

Q: How did the survival turn out when `Cc1oc(-c2ccc(C(=O)NCCC(C)C)cc2)nc1CS(=O)(=O)c1ccccc1` was run?
A: inactive: 73%

Q: Which survival does the source give for `CCOC(=O)c1c(C)[nH]c(C)c1S(=O)(=O)N1CCCC(C(=O)Nc2ncccc2C)C1` (centres undefined) here?
A: inactive: 59%

Q: Which survival does the source give for `COC(=O)c1sccc1S(=O)(=O)N(CC(=O)NCc1ccc(C)cc1)c1ccccc1` here?
A: inactive: 72%

Q: How did the survival turn out when `CC(C)C(=O)Nc1cccc(-c2nc3ccccc3o2)c1` was run?
A: inactive: 103%

Q: For `OC(C#CCN1CCOCC1)(c1ccccc1)c1ccccc1`, which survival is on record?
A: inactive: 107%

Q: How did the survival turn out when `N#Cc1c[nH]n2c(NC3CCCC3)c(-c3cccc(Br)c3)nc12` was run?
A: inactive: 48%

Q: With `Cc1ccn2c(NC(=O)c3cccc(Cl)c3)c(-c3ccccc3)nc2c1` as the compound, how does the survival read?
A: inactive: 62%

Q: With `CCOCCCn1c(=N)c(C(=O)NC(C)c2ccccc2)cc2c(=O)n3cc(C)ccc3nc21` (centres undefined) as the compound, how does the survival read?
A: inactive: 83%

Q: For `CCc1ccc(CNc2ncc(-c3cccc(OC)c3)n2C)cc1`, which survival is on record?
A: active: 4%

Q: With `CCCC(=O)N1CCc2cc(OC)c(OC)cc2C1COc1ccccc1OC` (centres undefined) as the compound, how does the survival read?
A: inactive: 22%

Q: With `Cc1cccc(C)c1NC(=O)Cn1c(=O)n(Cc2ccc(C(=O)NCc3ccco3)cc2)c(=O)c2sccc21` as the compound, how does the survival read?
A: inactive: 81%

Q: Which survival does the source give for `CCOC(=O)Cc1cc(C(=O)Nc2ccc(Br)cc2)sc1-c1ccc(C)cc1` here?
A: inactive: 119%

Q: How did the survival turn out when `Cc1cc(C)cc(OCC(=O)Nc2nonc2-c2ccc(Br)cc2)c1` was run?
A: inactive: 120%

Q: How did the survival turn out when `O=C(NCC1CCCO1)C1CC(c2ccccc2O)=NO1` (centres undefined) was run?
A: inactive: 129%

Q: For `Cc1nc2sc(C)c(C)n2c(=O)c1S(=O)(=O)N1CCN(c2ccccc2F)CC1`, which survival is on record?
A: inactive: 88%

Q: How did the survival turn out when `Cc1cccc(N2CCN(C(=O)c3ccc4nc(N5CCC(C)CC5)sc4c3)CC2)c1C` was run?
A: active: 1%

Q: How did the survival turn out when `Cc1ccc2c(Sc3ccc(Cl)cc3)c(C(=O)NCCC(C)C)[nH]c2c1` was run?
A: inactive: 91%

Q: `Cc1c(C(=O)N(Cc2ccc(N(C)C)cc2)CC2CCCO2)oc2ccccc12` (centres undefined) was tested. Which survival did it give?
A: inactive: 77%

Q: How did the survival turn out when `CCc1nnc(SCc2nc(-c3ccccc3Cl)oc2C)c2cc3sc(C)cc3n12` was run?
A: inactive: 81%

Q: For `O=C(Nc1nc2c(F)cccc2s1)c1ccc(S(=O)(=O)N2CCOCC2)cc1`, which survival is on record?
A: inactive: 101%

Q: For `CCCSc1ncc(Cl)c(C(=O)Nc2ccc(S(=O)(=O)N3CCCC(C)C3)cc2)n1` (centres undefined), which survival is on record?
A: inactive: 84%

Q: Which survival does the source give for `COc1ccc(CN(C(=O)c2ccccc2F)C2CCS(=O)(=O)C2)cc1` (centres undefined) here?
A: inactive: 94%

Q: With `Cc1ccc(NC(=O)CN2C(=O)c3cccnc3Sc3ccccc32)cc1C` as the compound, how does the survival read?
A: inactive: 70%

Q: How did the survival turn out when `COc1ccc2[nH]cc(CCNC(=O)Nc3ccccc3)c2c1` was run?
A: inactive: 95%

Q: With `COc1ccc(C2C3C(=O)N(c4ccccc4)C(=O)C3ON2c2ccccc2)cc1` (centres undefined) as the compound, how does the survival read?
A: inactive: 104%

Q: Which survival does the source give for `CC(=O)N1c2ccc(S(=O)(=O)N3CCCCCC3)cc2CC1C(=O)NCc1ccccc1` (centres undefined) here?
A: inactive: 79%

Q: How did the survival turn out when `O=C(Nc1ccc2oc(-c3ccccc3)nc2c1)c1ccc2ccccc2c1` was run?
A: inactive: 80%

Q: Which survival does the source give for `COc1ccc(CNC(=O)C2CCCN2C(=O)NCc2ccccc2)cc1` (centres undefined) here?
A: inactive: 109%

Q: `COc1cc2c(cc1OC)C(COc1ccc3c(C)cc(=O)oc3c1)N(C(=O)c1cccc(OC)c1OC)CC2` (centres undefined) was tested. Which survival did it give?
A: inactive: 75%

Q: Which survival does the source give for `COCCn1c(C)cc(O)c(C(c2ccccc2)N2CCN(CCO)CC2)c1=O` (centres undefined) here?
A: active: 0%

Q: `Cc1cc(C)cc(NC(=O)CSc2oc(-c3ccco3)nc2S(=O)(=O)c2ccccc2)c1` was tested. Which survival did it give?
A: inactive: 83%

Q: With `O=C(Nc1ccccc1OCc1cc(=O)n2ccccc2n1)c1cccc(Br)c1` as the compound, how does the survival read?
A: inactive: 76%

Q: With `CCOc1ccc(NC(=O)N2CCC(CN3CCCCCC3)CC2)cc1` as the compound, how does the survival read?
A: inactive: 111%

Q: With `Cc1cccc(N2CCN(C(=O)c3ccc4c(c3)c(C)c(C)n4C)CC2)c1C` as the compound, how does the survival read?
A: inactive: 74%

Q: `COc1ccc2c(c1)c1c(c(=O)n(Cc3ccccc3)c(=O)n1CC(=O)Nc1cc(C)cc(C)c1)n2C` was tested. Which survival did it give?
A: inactive: 71%

Q: With `Clc1ccc(OCc2nc(-c3ccc(-n4cccc4)cc3)no2)cc1` as the compound, how does the survival read?
A: inactive: 142%

Q: For `Cc1ccc(Cl)cc1NC(=O)CCCn1c(=O)c2cccn2c2ccccc21`, which survival is on record?
A: inactive: 83%

Q: For `Cc1ccc2c(n1)sc1c(=O)n(-c3cccc(C(F)(F)F)c3)nnc12`, which survival is on record?
A: inactive: 112%

Q: With `COc1ccc(-c2nc3scc(CCNS(=O)(=O)c4cc(F)ccc4OC)n3n2)cc1OC` as the compound, how does the survival read?
A: inactive: 87%

Q: For `NS(=O)(=O)c1cccc(C(=O)O)c1`, which survival is on record?
A: inactive: 106%

Q: Which survival does the source give for `Cc1ccc(CN2CCSc3ccc(C(=O)Nc4cc(C)cc(C)c4)cc32)cc1` here?
A: inactive: 97%

Q: Which survival does the source give for `Cc1ccc(CCNC(=O)CCCn2c(=O)c3ccccc3n(CC(=O)Nc3cc(Cl)ccc3C)c2=O)cc1` here?
A: inactive: 137%

Q: How did the survival turn out when `CC(=O)N1CCc2c(sc3nc(SCC(N)=O)n(-c4ccc(F)c(Cl)c4)c(=O)c23)C1` was run?
A: inactive: 67%

Q: With `CN(C(=O)CSc1nnc(-c2ccc([N+](=O)[O-])cc2)o1)C1CCCCC1` as the compound, how does the survival read?
A: inactive: 77%

Q: How did the survival turn out when `Clc1ccc(Nc2c(-c3cccs3)nc3ccc(Cl)cn23)cc1` was run?
A: inactive: 112%

Q: Which survival does the source give for `COc1ccc(CCNC(=O)Cn2c(=O)cc(C(F)(F)F)c3c(C)nn(C)c32)cc1OC` here?
A: inactive: 85%

Q: For `COc1cc(-c2nc3ccccn3c2NC2CCCC2)ccc1O`, which survival is on record?
A: inactive: 89%

Q: `CCOC(=O)c1sc2nc(C)n(CC(=O)Nc3cccc(Cl)c3)c(=O)c2c1C` was tested. Which survival did it give?
A: inactive: 74%

Q: `Cc1ccc(C)c(CSC2=NC(C)(C)Nc3ccccc32)c1` was tested. Which survival did it give?
A: inactive: 74%

Q: With `COc1ccc(CN(C)S(=O)(=O)c2nnc(NC(=O)C(C)C)s2)cc1OC` as the compound, how does the survival read?
A: inactive: 47%

Q: For `CC(=O)c1cccc(NC(=O)CSc2nnc3ccc(-c4ccc(Cl)cc4)nn23)c1`, which survival is on record?
A: inactive: 132%

Q: `CCc1cccc(NC(=O)c2cc3c(=O)[nH]c4ccccc4c3n2C)c1` was tested. Which survival did it give?
A: inactive: 90%

Q: `CC(C)(C)c1cc(CN2CCOCC2)c(C(=O)O)o1` was tested. Which survival did it give?
A: inactive: 93%

Q: `COc1ccccc1NC(=O)C1=C(C)Nc2nc(SCc3ccccc3F)nn2C1c1cccnc1` (centres undefined) was tested. Which survival did it give?
A: inactive: 85%

Q: How did the survival turn out when `Cc1cccc(Nc2nc3nonc3nc2Nc2cccc(C)c2C)c1C` was run?
A: inactive: 102%

Q: How did the survival turn out when `C=CCc1c(C)nc2nc(SCC(=O)Nc3cccc(Cl)c3)nn2c1C` was run?
A: inactive: 81%

Q: With `CC(C)CN(CC(C)C)c1nc(-c2ccc(Cl)cc2)nc2ccccc12` as the compound, how does the survival read?
A: active: -1%

Q: For `Cc1c(Cl)cccc1NC(=O)c1ccc2c(c1)nnn2C1CCCC1`, which survival is on record?
A: inactive: 120%

Q: With `CCOC(=O)c1c(C)oc2nc(C)nc(N(CC(C)C)CC(C)C)c12` as the compound, how does the survival read?
A: inactive: 71%

Q: How did the survival turn out when `Cc1cc(C)c2[nH]c(=O)c(CN(C(=O)Nc3ccccc3F)C3CC3)cc2c1` was run?
A: inactive: 102%

Q: For `O=C(CCS(=O)(=O)c1ccccc1)N(Cc1cccnc1)c1nc2c(Cl)cccc2s1`, which survival is on record?
A: inactive: 82%

Q: Which survival does the source give for `O=C(Nc1ccccc1C(=O)OCc1cc(=O)n2c3c(sc2n1)CCCC3)c1ccccc1` here?
A: inactive: 94%

Q: `O=C(NCCCN1CCN(c2ccc(F)cc2)CC1)C1COc2ccccc2C1` (centres undefined) was tested. Which survival did it give?
A: inactive: 65%

Q: How did the survival turn out when `COc1ccc(Cl)cc1NC(=O)Cn1c(=O)n(Cc2nc(C)no2)c(=O)c2ccccc21` was run?
A: inactive: 68%

Q: With `CCc1ccc(NC(=O)c2ccc3c(=O)n4nc(Nc5ccccc5C)sc4nc3c2)cc1` as the compound, how does the survival read?
A: inactive: 71%

Q: With `S=C(NCc1ccco1)Nc1ccccc1` as the compound, how does the survival read?
A: inactive: 115%

Q: Which survival does the source give for `Clc1cccc(-n2ncc3c(NCCc4ccccc4)ncnc32)c1` here?
A: inactive: 87%

Q: For `CCCOc1ccc(C2C(=O)N(C3CCCCC3)CC(=O)N2CCc2ccccc2)cc1OC` (centres undefined), which survival is on record?
A: inactive: 93%

Q: How did the survival turn out when `CCOC(=O)c1cccc(NS(=O)(=O)c2cc(-c3cnc(C)o3)ccc2OC)c1` was run?
A: inactive: 110%

Q: Which survival does the source give for `CN(C)C(=O)c1ccc(NC(=O)Cn2nc(-c3ccccc3)c3ccccc3c2=O)cc1` here?
A: inactive: 65%

Q: Which survival does the source give for `CCCCCNC(=O)c1cc2c(=O)n3ccccc3nc2n1C` here?
A: inactive: 83%

Q: Which survival does the source give for `COc1ccc(OCCn2cnc3ccccc32)cc1` here?
A: inactive: 107%

Q: With `CCCCNC(=O)C(CC)Sc1nnc(-c2ccc(F)cc2)c(-c2ccc(F)cc2)n1` (centres undefined) as the compound, how does the survival read?
A: inactive: 84%

Q: Which survival does the source give for `Cc1c(C=Nc2ccc(SC#N)c(Cl)c2)c(O)[nH]c(=O)c1C#N` here?
A: inactive: 97%
